Laboratory results taken from PubChem BioAssay AID1347071 (National Center for Advancing Translational Sciences (NCATS), 2019).
Hit rate of the full screen: of about 410,000 compounds, about 260 (0.063%) were called active. Inconclusive results, whose numbers are uncertain, are shown with a selection of clear calls. Calls follow the shape of the dose curve; as a rule, active = well fitted activation curve with a large enough effect; inconclusive = small, poorly fitted or top-dose-only effect; inactive = no such curve, though single readings can be large or run the other way. Potencies of inconclusive entries are left out as doubtful fits.

Experiment: qHTS for compounds that reverse cellular toxicity of Amyloid beta (A-beta) peptide in yeast: Primary Screen; also: nearly all actives have a fitted effect of over 55% in size
Settings: yeast expressing A-beta42, growth rescue, OD600, 48 h; growth rescue: at 46.1 µM (top of the series), 0% DMSO, 100% iron-clioquinol control
Procedure, shortened: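 Yeast A-beta toxicity model in growth medium with pinned compounds, 48 h at 30 C; growth read as absorbance at 600 nm. Normalized to FeCl3/clioquinol equimolar mix (positive) and DMSO (negative).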
Potency is read from the fitted curve at half-maximal effect; tags tell the direction and shape of the fitted curve.

Row | SMILES | growth rescue | Potency
1 | COc1ccc([C@H]2CC(=O)C=C(c3ccc4c(c3)OCCO4)C2)cc1 | inactive: 1.29% | –
2 | COc1ccc(CCN2C(=O)N(c3cccc(C)c3)C(=O)C2CC(=O)Nc2ccccc2)cc1OC (configuration not stated) | inactive: -13.4% | –
3 | O=C(COC(=O)Cc1ccc(F)cc1)Nc1ccc(Cl)cn1 | – | inconclusive [activator, partial curve, poor fit]
4 | COc1ccc(-c2nnc(SCC(=O)N3CCC(C)CC3)o2)cc1 | inactive: -21.7% | –
5 | C[C@@H]1C(c2ccccc2)=NN(c2ccccc2)[C@H]1C(=O)N1CCOC1=O | – | inconclusive [activator, partial curve, poor fit]
6 | CCN1CCN(Cc2ccc(NC(=O)c3ccc(C)c(/C=C/c4cnc(Nc5cc(N6CCNCC6)nc(C)n5)cn4)c3)cc2C(F)(F)F)CC1 | – | inconclusive [activator, partial curve, poor fit]
7 | c1ccc(CC2CCN(c3ncnc4sccc34)CC2)cc1 | inactive: 5.3% | –
8 | Cc1cc2oc(=O)c(CC(=O)NCCc3ccccc3F)c(C)c2c2occ(C(C)(C)C)c12 | inactive: -1.5% | –
9 | C=CCO/N=C/C1=C(O)C(C(=O)OC)C(C)(C)CC1=O (configuration not stated) | – | inconclusive [activator, partial curve, poor fit]
10 | COc1ccccc1NC(=O)Cn1cnc2sc(C(=O)Nc3cc(OC)c(OC)c(OC)c3)c(C)c2c1=O | – | inconclusive [activator, single point]
11 | O=C(O)/C=C\C(=O)N1CCc2ccccc21 | – | inconclusive [activator, partial curve, poor fit]
12 | NC1=NN=C(N2N=C(c3ccccc3)CC2(O)C(F)(F)F)n2ncnc2C1 (configuration not stated) | inactive: -4.22% | –
13 | O=C(Cn1nnc(-c2ccccc2NC(=O)c2ccccc2F)n1)NCc1ccco1 | – | inconclusive [activator, partial curve, poor fit]
14 | COc1ccc(F)cc1-c1cc(C(=O)NCc2cccc(C(F)(F)F)c2)[nH]n1 | – | inconclusive [activator, partial curve, poor fit]
15 | Cc1cc(=S)nc(-c2ccccn2)[nH]1 | – | inconclusive [activator, partial curve, poor fit]
16 | Cc1cc(C)c2c(c1)c(C)cc1nnc(SCC(=O)c3ccccc3)n12 | inactive: 1.83% | –
17 | COC(=O)c1ccc([C@H]2CC(=O)O2)cc1 | inactive: -2.39% | –
18 | Cc1cccc(CSCCNC(=O)CN(c2cc(C)cc(C)c2)S(C)(=O)=O)c1 | – | inconclusive [activator, partial curve, poor fit]
19 | O=C(NCc1ccccc1)c1cc(C2CCCN(S(=O)(=O)c3ccccc3)C2)on1 (configuration not stated) | inactive: 0.0657% | –
20 | COc1ccc(CC(=O)Nc2nc3c(s2)CCCC3)cc1 | – | inconclusive [activator, partial curve]
21 | Cc1c(N/N=C(\C#N)C(=O)c2ccccc2)c(=O)n(-c2ccccc2)n1C | – | inconclusive [activator, single point]

Row | SMILES | growth rescue | Potency
22 | Cc1cc2oc(C(=O)Nc3sc4c(c3C(=O)NCc3ccco3)CCC4)cc(=O)c2cc1C | inactive: -7.14% | –
23 | O=C(Cn1cc(SCc2cccc(F)c2)c2ccccc21)N1CCCC1 | – | inconclusive [activator, partial curve, poor fit]
24 | CNC(=S)N/N=C/c1cccc(OCc2ccccc2F)c1 | – | inconclusive [activator, single point]
25 | O=C(Nc1ccc(C(F)(F)F)cc1)c1cc(S(=O)(=O)NC2CCCCCC2)ccc1F | – | inconclusive [activator, single point]
26 | O=C(N/N=C\c1ccc(Cl)s1)C1COc2ccccc2O1 (configuration not stated) | – | inconclusive [activator, partial curve, poor fit]
27 | CC(C)(C)NNC(=S)Nc1cccc(C(F)(F)F)c1 | – | inconclusive [activator, partial curve]
28 | O=[N+]([O-])c1cccnc1N1CCC(c2cc(-c3ccc(Cl)cc3Cl)n[nH]2)CC1 | – | inconclusive [activator, partial curve]
29 | COc1ccc(NC(=O)CN(C)C(=O)c2cc3c(s2)CCC3)cc1 | inactive: 13.9% | –
30 | Cc1ccc(NC(=O)COC(=O)COc2ccc(Cl)cc2C)c([N+](=O)[O-])c1 | – | inconclusive [activator, single point]
31 | Cc1ccc(S(=O)(=O)N(CC(=O)Nc2ccc(C(C)C)cc2)Cc2ccccc2)cc1 | inactive: -6.54% | –
32 | O=C(CNC(=O)c1ccccc1F)OC(C(=O)Nc1cc(C(F)(F)F)ccc1Cl)c1ccccc1 (configuration not stated) | – | inconclusive [activator, full curve, poor fit]
33 | Cc1cccc(N2CCN(C(=O)c3cc(S(=O)(=O)N4CCC(C)CC4)cn3C)CC2)c1C | – | inconclusive [activator, single point]
34 | Cc1[nH]c2c(ccc3ccccc32)c1C1C(CCN)C1(C)C (configuration not stated) | – | inconclusive [activator, partial curve, poor fit]
35 | NS(=O)(=O)c1ccc(Nc2nc(-c3ccc(O)cc3O)cs2)cc1 | inactive: 9.18% | –
36 | COc1cc(C(=O)N/N=C/c2ccc(OC(=O)c3ccccc3)c(OC)c2)ccc1O | – | inconclusive [activator, single point]
37 | O=C(NC(=S)NCc1ccc(Cl)cc1)c1ccco1 | – | inconclusive [activator, single point]
38 | Cc1ccc(S(=O)(=O)NN=Cc2ccc(N3CCOCC3)cc2)cc1[N+](=O)[O-] | – | inconclusive [activator, partial curve, poor fit]
39 | COc1ccc(O)c(/C=N/NC(=S)NCCc2ccccc2)c1 | – | inconclusive [activator, single point]
40 | O=C(NC(=S)Nc1ccc(N2CCOCC2)c(Cl)c1)c1cccs1 | – | inconclusive [activator, single point]
41 | C/C(N)=C(/C#N)C(=O)CSc1nnc(Nc2cccc(C)c2C)s1 | – | inactive
42 | CC1=CC(C)(C)NC(=S)N1c1ccc(Cl)cc1 | – | inconclusive [activator, full curve, poor fit]
